Results as given in PubChem BioAssay AID2101 (National Center for Advancing Translational Sciences (NCATS), 2009).
In all, about 330,000 compounds went through this assay and about 300 (0.091%) were called active. Inconclusive results, whose numbers are uncertain, are shown with a selection of clear calls. The call rests on the fitted dose curve; in most records, active means well fitted inhibition curve with a large enough effect; inconclusive means small, poorly fitted or top-dose-only effect, or effect the other way, or another doubt; inactive means no such curve, though single readings can be large or run the other way. Potencies of inconclusive entries are left out as doubtful fits.
Potency means the concentration at half of the fitted maximal effect.
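Wherever activity change, negative = inhibition is given: 0% = full enzyme activity and -100% = no enzyme basal.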

What follows are compounds tested against Lysosomal acid glucosylceramidase (Homo sapiens) (UniProt P04062) (assay: qHTS Assay for Inhibitors and Activators of N370S glucocerebrosidase as a Potential Chaperone Treatment of Gaucher Disease). Conditions: N370S GC spleen homogenate, 4MU-glucoside fluorescence; activity change, negative = inhibition: at 59.4 µM (top of the series) unless noted.
In the case of `CC(=O)C1=C(C)OC(N)=C(C#N)C1c1cc([N+](=O)[O-])ccc1Cl` (centres undefined), the Potency is reported as “inactive”. In the case of `CCc1c(C)c2cc(Cl)c(O)c(CN(CC)CC)c2oc1=O`, the Potency is reported as inconclusive [activator, partial curve]. `COC(=O)c1c(NC(=O)CN2CCC3(O)CCCCC3C2c2ccccc2OC)sc(C)c1C` (centres undefined) was tested, and the Potency was inconclusive [activator, partial curve]. `COc1ccc(CNc2ccnc(-c3ccccc3C(F)(F)F)n2)c(OC)c1` was tested, and the Potency was inconclusive [inhibitor, partial curve]. In the case of `COc1ccc2cc(C(c3nnnn3CC3CCCO3)N3CCOCC3)c(=O)[nH]c2c1` (centres undefined), the Potency is reported as “inactive”. `COc1cc(/C=N/Nc2ccccn2)cc(OC)c1O` was tested, and the Potency was “inactive”. `CNC(=S)Nc1cccc(C(=O)OC)c1` was tested, and the Potency was “inactive”. In the case of `O=C(Nc1ccc2c(c1)OCO2)c1cnn2c(C(F)(F)F)cc(-c3ccco3)nc12`, the Potency is reported as inconclusive [activator, full curve]. For `CCCOc1ccc(CNC(=O)Cc2cccs2)cc1`, the Potency was “inactive”. With `Cc1ccc(S(=O)(=O)N(CC(=O)N=Nc2c(O)[nH]c3ccccc23)c2ccc(C)c(C)c2)cc1` the Potency was inconclusive [activator, partial curve]. For `O=C(CSc1ccccn1)Nc1nc2ccc(Br)cc2s1`, the Potency was inconclusive [activator, single point]. For `Cc1cc(=O)oc2cc(OC(=O)CCN3C(=O)c4ccccc4C3=O)ccc12`, the Potency was inconclusive [activator, single point]. For `COc1cccc(/C=C2\SC(=S)N(C(C)C(=O)NC3C=CS(=O)(=O)C3)C2=O)c1` (centres undefined), the Potency was active: 15.8 µM. With `Cc1cc(N2CCN(S(=O)(=O)c3ccc(Cl)cc3)CC2)c2ccccc2n1` the Potency was inconclusive [inhibitor, single point]. In the case of `CCn1c(=O)c(CCC(=O)NCCN2CCOCC2)c(C)c2c(C)nn(-c3ccccc3)c21`, the Potency is reported as inconclusive [inhibitor, full curve]. In the case of `COc1ccccc1CNC(=O)CCC(=O)N1CCOc2ccc(Cl)cc21`, the Potency is reported as inconclusive [inhibitor, single point]. With `CN(C)CCCNC(=O)/C(=C\c1ccc(-c2cccc([N+](=O)[O-])c2)o1)NC(=O)c1ccccc1` the Potency was inconclusive [inhibitor, single point]. `COc1ccc(Nc2nc(-c3cccs3)nc3ccccc23)c(OC)c1` was tested, and the Potency was inconclusive [inhibitor, partial curve]. With `N/C(=N\OC(=O)c1ccccc1)c1ccn[nH]1` the Potency was “inactive”. For `CCCCCCCc1c(O)nc(SCCN(C)C)[nH]c1=O`, the Potency was inconclusive [inhibitor, single point]. With `C[C@@H](C1=C(CCN(C)C)Cc2ccccc21)c1ccccn1` the Potency was “inactive”. For `COc1ccc(C(C)=O)cc1COC(=O)CNC(=O)c1ccccc1F`, the Potency was “inactive”. With `COc1ccc2nc(N3CCCCC3)c(C#N)cc2c1` the Potency was “inactive”. For `O=C(NCc1cccnc1)NC1(C(F)(F)F)Oc2ccccc2O1`, the Potency was “inactive”. `O=c1c2ccccc2nc(SCc2ccc([N+](=O)[O-])cc2)n1-c1ccccc1` was tested, and the Potency was inconclusive [activator, partial curve]. For `COC(=O)c1ccc(CSc2nnc3c(Cl)cc(Cl)cn23)o1`, the Potency was inconclusive [inhibitor, partial curve]. For `Nc1ccccc1-c1nnc(-c2ccc(-c3ccccc3)cc2)o1`, the Potency was inconclusive [activator, partial curve]. `COc1ccccc1NC(=O)c1ccc(COc2ccccc2Br)o1` was tested, and the Potency was inconclusive [activator, single point]. In the case of `COc1ccc(NC(=O)CN2C(=O)CC(C)S(=O)(=O)c3ccccc32)cc1` (centres undefined), the Potency is reported as inconclusive [activator, single point]. In the case of `Oc1ccc(Nc2nc(NCC3CCCO3)c3ccccc3n2)cc1` (centres undefined), the Potency is reported as “inactive”. `CC1Cc2ccccc2N1C(=O)CSc1nnc(CSc2ncccn2)n1C` (centres undefined) was tested, and the Potency was “inactive”. For `CN(C)S(=O)(=O)c1cccc(C(=O)Nc2ccc3c(c2)CCC3)c1`, the Potency was “inactive”. For `O=C(c1ccc2c(c1)OCO2)N1CCN(c2ccc(Cl)cc2)CC1`, the activity change, negative = inhibition was inactive: 3% [at 2.35 µM]. In the case of `CCOC(=O)COn1c(-c2cccc(Cl)c2)nc2ccc([N+](=O)[O-])cc21`, the Potency is reported as “inactive”. `Cn1c2ccccc2c(=O)c2ccc(F)cc21` was tested, and the Potency was inconclusive [activator, partial curve]. With `CCOC(=O)c1sc(N)nc1-c1ccccc1` the Potency was inconclusive [inhibitor, partial curve]. `CC(=O)NCCc1ccc(O)c(O)c1` was tested, and the Potency was “inactive”. With `Cc1oc2cc(OCc3cnn(-c4ccccc4)c3)ccc2c(=O)c1Oc1ccccc1F` the Potency was inconclusive [activator, full curve]. For `CC(=O)Nc1ccc(C2=NN(c3ccccc3)C(c3ccccc3)C2)cc1` (centres undefined), the Potency was inconclusive [activator, partial curve]. For `COc1ccc(-n2c(=O)c(-c3cccs3)nc3cnc(N4CCNCC4)nc32)cc1`, the Potency was inconclusive [inhibitor, single point]. `CC[C@@H](C)[C@H](CNC)NC[C@@H](Cc1cccc2ccccc12)NCCc1cccc(C(F)(F)F)c1` was tested, and the Potency was inconclusive [inhibitor, partial curve]. In the case of `Cc1ccc(-c2cc(-c3ccco3)c(C#N)c(=O)[nH]2)cc1`, the Potency is reported as inconclusive [activator, single point]. In the case of `Cc1nc2ccccc2c(=O)n1CCc1ccc(O)cc1`, the Potency is reported as “inactive”. `Cc1ccc(-n2ncc3c2CCCC3NC(=O)c2ccccc2N2CCOCC2)cc1C` (centres undefined) was tested, and the Potency was inconclusive [inhibitor, partial curve]. With `O=C(Nc1ccccc1)c1ccc(OC(=O)c2cc3ccccc3o2)cc1` the Potency was inconclusive [inhibitor, full curve, poor fit]. In the case of `CCCCOc1ccc(NC2=NC3(CCCCC3)N=C(N)N2)cc1`, the Potency is reported as inconclusive [inhibitor, single point]. In the case of `CC(=O)c1ccc(NC(=O)COc2ccccc2C(=O)Nc2ccccc2)cc1`, the Potency is reported as inconclusive [activator, partial curve]. For `CCc1ccc(C2/C=C\CNC(c3ccccc3)C(=O)N2Cc2ccc(C)cc2)cc1` (centres undefined), the Potency was inconclusive [inhibitor, partial curve]. With `CCC(C)c1ccccc1NC(=O)CN(C)CCOc1ccc(Cl)cc1` (centres undefined) the Potency was inconclusive [inhibitor, single point]. For `OC(COc1cccc2ccccc12)CN1CCN(c2ccccc2Cl)CC1` (centres undefined), the Potency was inconclusive [inhibitor, full curve]. For `CC(C)c1ccc(NC(=O)Cc2cn(C)c3ccccc23)cc1`, the Potency was inconclusive [activator, single point]. In the case of `O=C(NCC1CCCO1)C1CCN(C(=O)c2ccc(Cl)cc2)CC1` (centres undefined), the Potency is reported as “inactive”. For `COc1cccc(NC(=O)CSc2ncc(S(=O)(=O)c3ccccc3)c(=O)[nH]2)c1`, the Potency was inconclusive [activator, partial curve, poor fit]. For `Cc1c(O)cccc1C(=O)N[C@@H](CSc1ccccc1)[C@H](O)CN1C[C@H]2CCCC[C@H]2C[C@H]1C(=O)NC(C)(C)C`, the Potency was inconclusive [inhibitor, single point]. For `N/C(=N\OC(=O)CSc1ccccc1)c1ccccn1`, the Potency was “inactive”. `CCCCc1cc(=O)oc2cc(OC(C)C(=O)NCCN3CCOCC3)c(Cl)cc12` (centres undefined) was tested, and the Potency was active: 20 µM. In the case of `COc1ccc(CC(=O)N(Cc2ccccc2)c2ccccc2)cc1S(=O)(=O)N1CCOCC1`, the Potency is reported as inconclusive [inhibitor, single point]. In the case of `Cc1ccc(OCc2nc(C#N)c(N3CCCCC3)o2)cc1`, the Potency is reported as inconclusive [activator, partial curve]. `CNc1nc(-c2ccccc2Cl)nc2ccccc12` was tested, and the Potency was inconclusive [inhibitor, partial curve]. With `O=C(COC(=O)c1ccccc1C(=O)c1ccccc1)NCCc1ccc(Cl)cc1Cl` the Potency was inconclusive [activator, single point]. For `COc1ccc(-c2cc(-c3ccccc3)nc3ncnn23)cc1`, the Potency was inconclusive [activator, single point]. For `CCN(c1cccc(C)c1)c1nc2ccsc2c(=O)s1`, the Potency was inconclusive [activator, partial curve]. In the case of `C#CCOCCOCCOCCNc1nc(N2CCN(C(=O)[C@H]([C@@H](C)CC)n3cc([C@@H](N)Cc4ccc(O)cc4)nn3)CC2)nc(N2CCN(C(=O)[C@H](CCCCN)n3cc([C@@H](N)C(C)CC)nn3)CC2)n1` (some centres undefined), the Potency is reported as “inactive”. With `CCOC(=O)N1CCN(c2ccc([N+](=O)[O-])cc2)CC1` the Potency was “inactive”. For `CC(C)(C)C(=O)Nc1cc(S(=O)(=O)Nc2ccc(Cl)cc2)ccc1Cl`, the Potency was “inactive”. In the case of `Cc1[nH]c2ccccc2c1/C=N/NC(=O)C1CC1(c1ccccc1)c1ccccc1` (centres undefined), the Potency is reported as inconclusive [activator, full curve]. In the case of `CCOc1ccc(Br)cc1S(=O)(=O)Nc1ccc(C(=O)OCC(=O)Nc2ccc(C#N)cc2)cc1`, the Potency is reported as inconclusive [inhibitor, partial curve]. With `CC(C)NC(=O)c1sc(=S)n2c1[nH]c(=O)c1ccc(C(=O)NCCc3ccc(Cl)cc3)cc12` the Potency was “inactive”. `Cc1ccc2cc(C(c3nnnn3Cc3ccccc3)N3CCc4ccccc43)c(=O)[nH]c2c1` (centres undefined) was tested, and the Potency was inconclusive [activator, partial curve].
